Measurements published in publication PMC4336329 (PLoS ONE, 2015).
Screen size: about 310,000 compounds; about 14,000 (4.5%) showed an effect of 50% or more. The effect is printed as a negative number. Some of the results follow.

target: human ether-à-go-go-related gene (hERG) potassium channel (human, UniProt Q12809); assay: primary screen, population patch clamp on CHO cells stably expressing hERG
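Further: peak tail current of the secondary pulse compared with the same well before compound.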

human ether-à-go-go-related gene (hERG) potassium channel, sequence (Q12809 whole entry, looked up): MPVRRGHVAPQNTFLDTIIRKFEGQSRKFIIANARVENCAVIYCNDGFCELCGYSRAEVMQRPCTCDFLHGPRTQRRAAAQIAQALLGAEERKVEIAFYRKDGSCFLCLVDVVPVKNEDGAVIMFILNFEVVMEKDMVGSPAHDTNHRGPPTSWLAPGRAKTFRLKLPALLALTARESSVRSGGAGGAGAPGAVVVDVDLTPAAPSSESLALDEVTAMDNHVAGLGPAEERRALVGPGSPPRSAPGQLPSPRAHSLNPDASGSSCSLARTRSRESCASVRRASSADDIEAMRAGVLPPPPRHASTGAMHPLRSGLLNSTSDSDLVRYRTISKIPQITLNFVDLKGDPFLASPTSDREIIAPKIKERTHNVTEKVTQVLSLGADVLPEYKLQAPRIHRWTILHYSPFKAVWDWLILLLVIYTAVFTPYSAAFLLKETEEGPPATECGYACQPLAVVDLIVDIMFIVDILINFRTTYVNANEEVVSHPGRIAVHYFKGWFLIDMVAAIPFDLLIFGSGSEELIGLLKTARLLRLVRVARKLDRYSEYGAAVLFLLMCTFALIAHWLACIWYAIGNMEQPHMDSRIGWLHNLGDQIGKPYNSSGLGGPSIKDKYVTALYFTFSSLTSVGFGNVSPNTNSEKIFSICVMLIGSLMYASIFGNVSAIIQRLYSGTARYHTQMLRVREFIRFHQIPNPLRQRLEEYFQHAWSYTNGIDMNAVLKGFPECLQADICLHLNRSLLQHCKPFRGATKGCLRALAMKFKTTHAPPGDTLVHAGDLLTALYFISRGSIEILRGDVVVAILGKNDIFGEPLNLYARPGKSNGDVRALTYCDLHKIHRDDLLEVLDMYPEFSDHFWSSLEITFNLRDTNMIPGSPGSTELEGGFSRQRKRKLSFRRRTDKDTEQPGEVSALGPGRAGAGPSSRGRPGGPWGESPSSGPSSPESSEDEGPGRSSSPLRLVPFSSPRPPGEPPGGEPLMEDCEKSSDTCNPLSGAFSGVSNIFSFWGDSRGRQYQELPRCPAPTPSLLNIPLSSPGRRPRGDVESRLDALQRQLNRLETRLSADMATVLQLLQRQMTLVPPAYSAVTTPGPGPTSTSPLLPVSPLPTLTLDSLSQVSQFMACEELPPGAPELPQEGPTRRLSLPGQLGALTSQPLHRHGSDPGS

Point of comparison: `COc1ccc(NC(=O)c2cc3ccccc3cc2O)cc1`, “hERG current change (%, negative = inhibition) at 10uM” value 17.2%. Against it:
- O=C(COC(=O)/C=C/c1ccccc1)NCc1cccs1 — lower, -13.1%
- O=C(Nc1sc2c(c1C(=O)O)CCC2)c1ccco1 — lower, 7.29%
- COc1ccc(C2=NN(C(=O)CSc3nc(=O)n4ccc(C)cc4n3)C(c3ccc(C)cc3)C2)cc1 (centres unmarked) — lower, 5.1%
- O=C(c1cccc(Cl)c1)N1CCCC(C(=O)N2CCCCCC2)C1 (centres unmarked) — lower, -22.3%
- CCN(CC)S(=O)(=O)c1ccc(N2CCOCC2)c(NC(=O)CCC2CCCCC2)c1 — lower, -2.83%
- COc1ccc(NS(=O)(=O)c2cccc(C(=O)NCCc3ccc(S(N)(=O)=O)cc3)c2)cc1 — lower, 14.5%
- CC[C@@]12C(=O)N(c3cccc(F)c3)C(=O)N1[C@H](c1ccc(Cl)cc1)[C@@H]1C(=O)N(C3CCCCC3)C(=O)[C@@H]12 — lower, -5.3%
- Nc1cc(N)nc(SCCOc2ccccc2F)n1 — lower, 8.75%
- CCC1C(=O)Nc2nc(-c3ccccc3)c(-c3ccccc3)n2N=C1C (centres unmarked) — lower, -41.3%
- Clc1cccc(OCCn2cncn2)c1Cl — lower, 11.5%
- Cc1nnnn1/C(=C\c1ccccc1)C(=O)OCC(=O)N(C)C1CCS(=O)(=O)C1 (centres unmarked) — lower, 8.24%
- COc1cccc(OC)c1C(=O)NC(=S)N1CCCCC1c1cccnc1 (centres unmarked) — lower, -13%
- CCOC(=O)N1CCC(Nc2c(NCCN3CCN(c4cccc(Cl)c4)CC3)c(=O)c2=O)CC1 — lower, -0.879%
- NC(=O)C(CCC(=O)c1ccc(Br)cc1)S(=O)(=O)c1ccccc1 (centres unmarked) — lower, -10.6%
- Cc1ccc(NC(=O)CSc2nc3c(c(=O)[nH]2)CCC3)cc1C — lower, -13.4%
- CCOC(=O)C1(CC/C(C)=N\NC(N)=O)CC(C)(C)OC1=O (centres unmarked) — lower, 3.89%
- Cc1ccc(C2CC(c3cccs3)=NN2C(=O)CSc2nc(=O)n3ccc(C)cc3n2)cc1 (centres unmarked) — lower, -46.3%
- CS(=O)(=O)N(Cc1ccco1)Cc1ccccc1Cl — lower, -17.6%
- CC(=O)c1ccc(Nc2ccc(-c3ccccc3C)nn2)cc1 — lower, -17.5%
- CC(N=C1NC(C)(C)Cc2ccccc21)C(=O)O (centres unmarked) — lower, 16.8%
- O=C(O)CN1C(=O)/C(=C\c2cc(Br)ccc2OCc2ccccc2Cl)SC1=S — higher, 19.4%
- CCCNC(=O)OCc1cccnc1Sc1ccc(C)cc1 — lower, -30%
- COc1ccc(NC(=O)c2ccc(-n3nc(C)cc3C)cc2)cc1OC — lower, -1.4%
- COc1cccc(CNC(=O)CN2C(=O)COc3ccc(S(=O)(=O)N4CCCCC4)cc32)c1 — lower, 7.3%
- CCOc1ccc(CCNC(=O)COC(=O)c2cc(OC)c(OC)c(OC)c2)cc1OCC — lower, 8.32%
- COc1ccc(OCC(=O)N2CCN(C(=O)Cc3ccccc3)CC2)cc1 — lower, -32.5%
- O=S1(=O)CCC(N2CCOCC2)C1 (centres unmarked) — lower, -0.887%
- COC(=O)Nc1nc(-c2ccccc2)c(C(=O)c2ccc(Cl)cc2)s1 — lower, 9.4%
- COc1ccc(-c2csc(N3CCN(S(=O)(=O)c4ccc5c(c4)NC(=O)CO5)CC3)n2)cc1 — the same, 17.2%
- Cc1ccc(C(=O)Cn2nnc(-c3cccs3)n2)cc1 — lower, 2.22%
- Cc1nnc(SCC(=O)N2CCCC2)n1-c1ccc(F)cc1 — lower, -5.16%
- COc1ccc(-c2oc3ccccc3c(=O)c2OCC(=O)O)cc1 — higher, 17.9%
- O=C(C1CCCO1)N1CCN(C(=S)NC2CC2)CC1 (centres unmarked) — higher, 23%
- O=C(CSc1ccc(-c2ccco2)nn1)NC1CCCC1 — lower, -12%
- CCOc1ccccc1/C=C/c1onc(C)c1S(=O)(=O)N1CCC(C(=O)NC(C)(C)C)CC1 — lower, 11.9%
- CCCOc1ccc(CSC(CC(=O)O)C(=O)O)cc1 (centres unmarked) — lower, -1.74%
- CC(=O)OCC(COC(C)=O)OC(C)=O — higher, 33.1%
- N#C/C(=N\O)c1nc2ccccc2s1 — lower, 16.6%
- CCOC(=O)c1sc(NC(=O)Cc2ccc(C)cc2)nc1C — lower, -46.5%
- Cc1cc(C=C2C(=O)NC(=S)NC2=O)c(C)n1C1CCCC1 — lower, -2.09%
- CCN(CC)CCNCc1ccc(-c2ccc(Cl)cc2)o1.Cl — lower, -72.8%
- CN(C)Cc1nc2ccccc2c(=O)n1Cc1nc(-c2cc3ccccc3o2)cs1 — lower, 9.3%
- CCOCCCNS(=O)(=O)c1cc(Br)cc2c1N(C(=O)C1CC1)CC2 — lower, -17.8%
- c1ccc(OCCCCn2cnc3ccccc32)cc1 — lower, -43%
- CC(C)c1ccc(CNc2ncc(Br)cn2)cc1 — lower, 14.4%
- CCn1c(=O)n(CC)c2cc(S(N)(=O)=O)ccc21 — lower, -7.36%
